Data from the supplement of paper PMC3334620.
Whole data set: some 33,000 sequences, median “E-score (-0.5 to 0.5)” near -0.016, cut for the highest 2% near 0.31. Some of the results follow.

biological target: Cst6 (UniProt P40535); experiment: PBM E-score (8-mer binding enrichment) (E-score (-0.5 to 0.5)); higher = stronger / more preferred TF binding; most listed sequences are background and not binding sites; conditions: protein concentration: 200 nM; construct: GST-DNA-binding domain
Procedure, shortened: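 Yeast transcription factors carrying a GST tag, as full-length proteins or DNA-binding domains, were produced by PURExpress in vitro transcription/translation. About 100-200 nM protein was applied to universal all-10-mer Agilent arrays, double-stranded by primer extension on fresh or once-stripped slides. Bound protein was detected with fluorescent anti-GST, and scans were normalised with masliner. The Universal PBM Analysis Suite gave each ungapped eight-base word, pooled with its reverse complement, an E-score, a modified Wilcoxon-Mann-Whitney statistic.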

Going from AAAACTGC to AACCGTTG, the “PBM E-score” value falls from 0.0422 to 0.0287.

Compared with CGTGGACA, ACGGTCGA is lower in “PBM E-score” value: -0.00761 for the first, -0.115 for the second.

Compared with CGCATGCG, ACAGGGCC is lower in “PBM E-score” value: 0.215 for the first, -0.102 for the second.

Compared with AGATTTTC, CGTCAGAC is higher in “PBM E-score” value: 0.148 for the first, 0.287 for the second.

First: AACGGCGC
Second: GTCTTTTA
The “PBM E-score” value of the first is higher: 0.251 for the first, -0.0161 for the second.

First: CGTCCGAA
Second: CACGGCAG
The “PBM E-score” value of the first is lower: 0.087 for the first, 0.142 for the second.

Going from AACGTAAA to ATGATGTG, the “PBM E-score” value rises from 0.274 to 0.333.

First: ATAGGTCC
Second: GCAAGTGC
The “PBM E-score” value of the first is higher: -0.0652 for the first, -0.078 for the second.

Compared with AACCCTAA, ATAGAAGG is lower in “PBM E-score” value: -0.154 for the first, -0.208 for the second.

First: AGCCCCTG
Second: AGTGCCCG
The “PBM E-score” value of the first is lower: -0.341 for the first, -0.107 for the second.

Compared with CTGCGCTC, ACGCGTCT is higher in “PBM E-score” value: -0.292 for the first, -0.0602 for the second.

Compared with GACGTCAA, ATTGATGC is lower in “PBM E-score” value: 0.479 for the first, 0.262 for the second.

Going from GCATAACA to CGATCGAG, the “PBM E-score” value falls from 0.124 to -0.00323.

Compared with AGAGGCCG, ATATAAAA is higher in “PBM E-score” value: -0.252 for the first, 0.291 for the second.

Compared with CCGGCACA, ACGGTTTA is higher in “PBM E-score” value: -0.136 for the first, -0.0486 for the second.

Compared with ACTTATCT, GCTTTTAC is lower in “PBM E-score” value: 0.134 for the first, 0.101 for the second.

Going from GTGAACGA to CACGAGAA, the “PBM E-score” value falls from 0.00799 to -0.0289.

Compared with GACCTAGC, GCGGTTAA is higher in “PBM E-score” value: -0.116 for the first, -0.104 for the second.

Going from CTCGTGAA to CCATCGGA, the “PBM E-score” value falls from 0.108 to -0.349.

Compared with GCGGCCGC, ACGAAGTC is lower in “PBM E-score” value: 0.0907 for the first, -0.137 for the second.

Going from ACACTCAT to CCCTAATC, the “PBM E-score” value falls from 0.159 to -0.188.

Compared with CATGCCCA, ACGAAAGG is higher in “PBM E-score” value: -0.346 for the first, 0.0972 for the second.

Compared with ATAAACGA, CAACGACG is lower in “PBM E-score” value: 0.237 for the first, 0.0108 for the second.

First: AGCGTGTG
Second: ACTCTAGA
The “PBM E-score” value of the first is lower: 0.00485 for the first, 0.0646 for the second.

First: ATCTTGGA
Second: CGAGACAC
The “PBM E-score” value of the first is higher: -0.108 for the first, -0.253 for the second.

Compared with GTTGTTTA, AGGCCAAC is lower in “PBM E-score” value: 0.172 for the first, -0.188 for the second.

Going from CTGAATCA to GCATGGAC, the “PBM E-score” value falls from 0.055 to -0.0258.

Compared with CAGACCGG, ACGTGAGG is higher in “PBM E-score” value: -0.114 for the first, -0.0089 for the second.

First: ATTAATGA
Second: ATCAGAGG
The “PBM E-score” value of the first is higher: 0.243 for the first, 0.144 for the second.

Compared with AAACAATC, CAATCCCA is lower in “PBM E-score” value: 0.177 for the first, -0.322 for the second.

First: ATACATGG
Second: CGCTTGAA
The “PBM E-score” value of the first is lower: -0.121 for the first, 0.167 for the second.

Compared with GGTACGAA, AGGCGAAT is lower in “PBM E-score” value: 0.0828 for the first, 0.0491 for the second.

First: GCTCACAC
Second: GAGATGCA
The “PBM E-score” value of the first is higher: -0.0478 for the first, -0.071 for the second.

Compared with ATGCTGGG, AATTTACG is higher in “PBM E-score” value: -0.131 for the first, 0.296 for the second.

Compared with ACCAGTCG, AAGTCGGC is lower in “PBM E-score” value: -0.0984 for the first, -0.239 for the second.

Going from CAGAGAAA to ATCGTGTC, the “PBM E-score” value falls from 0.252 to 0.0646.

Going from CCATGCTC to CTCTGTGC, the “PBM E-score” value rises from -0.244 to -0.134.

Going from CAAAAGAA to CAAGATTA, the “PBM E-score” value falls from 0.239 to 0.143.

First: CTTGTCTC
Second: AAAGCCCC
The “PBM E-score” value of the first is higher: -0.0854 for the first, -0.286 for the second.

Compared with CAAAGCAG, AGGAGGAG is lower in “PBM E-score” value: -0.00273 for the first, -0.204 for the second.

Compared with CTTTGATA, CGGTGTTC is lower in “PBM E-score” value: 0.126 for the first, -0.0808 for the second.

Compared with ACAGGCGT, ATCTTTAA is higher in “PBM E-score” value: -0.233 for the first, 0.223 for the second.

Compared with ACTTATAT, AGGGGCGC is lower in “PBM E-score” value: 0.257 for the first, -0.00801 for the second.

Compared with AAGGAGCC, AAACTTTC is higher in “PBM E-score” value: -0.121 for the first, 0.00588 for the second.

Compared with CAGCTACC, ATTGCTCA is higher in “PBM E-score” value: -0.211 for the first, 0.192 for the second.

Going from CAATCCGG to ATTTGCTC, the “PBM E-score” value rises from -0.155 to -0.00905.

Compared with AGATTGTG, CGACGCAG is lower in “PBM E-score” value: 0.063 for the first, -0.242 for the second.

Going from TCCCGTAA to AGAGAAAG, the “PBM E-score” value rises from -0.0225 to -0.0221.

Going from AACAGCTG to AACTGCAC, the “PBM E-score” value falls from 0.144 to 0.0183.

Going from GCTGAAGA to CAACTGTA, the “PBM E-score” value rises from -0.228 to -0.00136.

Going from CCACTTCG to ATTGTTTC, the “PBM E-score” value rises from 0.0107 to 0.24.

Compared with ATGTCAGG, CCCGAGGA is lower in “PBM E-score” value: 0.176 for the first, -0.168 for the second.

Going from CACCTAAC to CTGGTTTA, the “PBM E-score” value falls from -0.0134 to -0.0136.

Going from TCTCGACA to AGTACACA, the “PBM E-score” value falls from 0.135 to 0.0774.

First: GCTTTCGA
Second: CGCAACAG
The “PBM E-score” value of the first is lower: -0.155 for the first, 0.174 for the second.

Going from CCCACTTA to CCAGATCG, the “PBM E-score” value falls from 0.0624 to -0.0783.

Compared with ATTTTCAA, ACATAGAA is lower in “PBM E-score” value: 0.206 for the first, 0.126 for the second.

Compared with AGCTGCCA, CAAACTAC is higher in “PBM E-score” value: -0.0672 for the first, -0.015 for the second.

Compared with GCTCCCAC, CGTTCCGC is higher in “PBM E-score” value: -0.251 for the first, 0.0692 for the second.

Going from CTGGATTC to ACTTCCTC, the “PBM E-score” value rises from -0.217 to -0.198.

Going from CAGCCCTG to AAGACAAA, the “PBM E-score” value rises from -0.285 to 0.175.

Going from CAGCGGAC to TAAAGGTA, the “PBM E-score” value rises from -0.196 to -0.0195.

Compared with CTTTGATC, CACTAAAG is lower in “PBM E-score” value: -0.0386 for the first, -0.0911 for the second.

Compared with ATACCTCA, ATTACAAC is higher in “PBM E-score” value: 0.0795 for the first, 0.226 for the second.

Compared with CACACCAA, GCCACCAA is lower in “PBM E-score” value: 0.186 for the first, -0.0617 for the second.

First: ATGTCATA
Second: GTTCTAGA
The “PBM E-score” value of the first is higher: 0.442 for the first, -0.0522 for the second.

Going from CTGCTCCA to AGCTTTTG, the “PBM E-score” value rises from -0.111 to 0.0485.

Compared with TCGTCGAA, ACTCGTCG is lower in “PBM E-score” value: 0.116 for the first, -0.0287 for the second.

Compared with TATTTTCA, AGCTACCT is lower in “PBM E-score” value: 0.227 for the first, -0.0864 for the second.

Going from TCTGGGAA to ATTGCGAG, the “PBM E-score” value rises from 0.00723 to 0.0899.

Going from AATCGACA to CCTAGTTC, the “PBM E-score” value falls from 0.148 to -0.0909.

First: CAATGCGG
Second: AAGTATAG
The “PBM E-score” value of the first is higher: 0.0695 for the first, -0.22 for the second.

Going from CACTAGGG to GGACACAC, the “PBM E-score” value rises from -0.241 to -0.164.

First: AGTACAAC
Second: ACTCAGGG
The “PBM E-score” value of the first is higher: -0.143 for the first, -0.233 for the second.

First: CGAGCGCG
Second: CACAAGGG
The “PBM E-score” value of the first is higher: -0.0601 for the first, -0.232 for the second.

First: AGGTGGCC
Second: ATAAGTAG
The “PBM E-score” value of the first is lower: -0.137 for the first, -0.0244 for the second.

Going from AGTGGGAC to ACACAGGT, the “PBM E-score” value falls from -0.201 to -0.226.

Compared with CTTATCTA, ATGCGAAA is lower in “PBM E-score” value: 0.274 for the first, 0.114 for the second.

First: CCTTCCAG
Second: GGCCCGCA
The “PBM E-score” value of the first is higher: -0.101 for the first, -0.213 for the second.

Compared with AGATGCCA, AATGAAGA is higher in “PBM E-score” value: -0.0689 for the first, 0.216 for the second.

Compared with AGAGCGTG, CCATGACC is higher in “PBM E-score” value: -0.211 for the first, 0.0749 for the second.

First: AGCCGCGC
Second: GAGTCTTA
The “PBM E-score” value of the first is higher: 0.18 for the first, -0.241 for the second.

First: GGTCTCCA
Second: AATTACGA
The “PBM E-score” value of the first is lower: -0.104 for the first, 0.286 for the second.

Compared with CCTTGACG, CGGCTGCC is lower in “PBM E-score” value: 0.094 for the first, 0.00372 for the second.

Compared with AGGATGTG, ACGGGCCG is higher in “PBM E-score” value: -0.232 for the first, -0.0938 for the second.

First: TCCAGTCA
Second: GATTTAGC
The “PBM E-score” value of the first is higher: -0.0187 for the first, -0.025 for the second.
